This passage reports AUC and IC50 results from the supplement of paper PMC4967469.

IC50 is the fitted dose that halves viability relative to control wells, and lower means more sensitive; a limit (>, <) means that the fit lies beyond the doses tested. AUC, from the same fit, is the share of area under the viability curve across the 256-fold dose range; the more sensitive the line, the further below 1. An entry number marks a drug with two screens in the source, which often give different values.

Compound in this test: CS(=O)(=O)N1CCN(Cc2cc3nc(-c4cccc5[nH]ncc45)nc(N4CCOCC4)c3s2)CC1 [GDC0941]
Kind of test: Viability of human cancer cell lines after 72 h of drug (GDSC screen). Conditions: screen: GDSC drug entry 1058. On the procedure: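 Human cancer cell lines in 384-well plates, medium with 10% serum, drug for 72 h over a 256-fold dose range (nine 2-fold or five 4-fold steps up to the top dose). Adherent lines were fixed and stained with the nucleic acid dye Syto60, suspension lines read with resazurin; signal relative to control wells, capped at 0 and 100%. One two-parameter sigmoid per drug and line, fitted in a mixed model over all curves with the slope shared within a line.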
Usually IC50 stands for the concentration that gives 50% inhibition. As to “GT3TKB (stomach, adherent, top dose 2 µM)”, the AUC is 0.943 and the IC50 was above 2000 nM.
For H4 (glioma, adherent, top dose 4 µM), in that order: 0.665 and 714 nM.
For “H9 (lymphoid neoplasm, suspension, top dose 4 µM)”, in that order: 0.992 and above 4000 nM.
With “H290 (mesothelioma, adherent, top dose 4 µM)”, the AUC worked out at 0.782 and the IC50 was found to be 1520 nM.
For “H513 (mesothelioma, semi-adherent, top dose 4 µM)”, in that order: 0.942 and above 4000 nM.
Regarding “H2369 (mesothelioma, adherent, top dose 4 µM)”, the AUC worked out at 0.923 and the IC50 was above 4000 nM.
For “H2373 (mesothelioma, adherent, top dose 4 µM)”, in that order: 0.701 and 1070 nM.
For “H2461 (mesothelioma, adherent, top dose 4 µM)”, in that order: 0.91 and above 4000 nM.
For “H2591 (mesothelioma, adherent, top dose 2 µM)”, in that order: 0.793 and 1230 nM.
Turning to “H2595 (mesothelioma, adherent, top dose 4 µM)”, the AUC was determined as 0.839 and the IC50 was above 4000 nM.
For “H2731 (mesothelioma, adherent, top dose 4 µM)”, in that order: 0.838 and 3290 nM.
For “H2795 (mesothelioma, adherent, top dose 4 µM)”, in that order: 0.779 and 1610 nM.
“H2869 (mesothelioma, adherent, top dose 4 µM)”: the AUC turned out to be 0.939 and the IC50 is above 4000 nM.
On to “H3118 (head and neck, adherent, top dose 4 µM)”, for which the AUC was 0.554 and the IC50 was determined as 356 nM.
For the cell line “H3255 (lung adenocarcinoma, adherent, top dose 4 µM)”, the AUC was found to be 0.93 and the IC50 is above 4000 nM.
For “H-EMC-SS (chondrosarcoma, adherent, top dose 4 µM)”, in that order: 0.887 and above 4000 nM.
With “HA7-RCC (kidney, adherent, top dose 4 µM)”, the AUC was 0.692 and the half-maximal inhibitory concentration (IC50) stood at 917 nM.
For “HAL-01 (lymphoblastic leukaemia, suspension, top dose 4 µM)”, in that order: 0.242 and 50.4 nM.
For “HARA (lung squamous cell carcinoma, adherent, top dose 4 µM)”, in that order: 0.762 and 1660 nM.
For “HC-1 (hairy cell leukaemia, suspension, top dose 4 µM)”, in that order: 0.925 and above 4000 nM.
As to HCC38 (breast, adherent, top dose 4 µM), the AUC is 0.964 and the IC50 was above 4000 nM.
As to “HCC202 (breast, adherent, top dose 4 µM)”, the AUC came to 0.788 and the IC50 is 2570 nM.
For “HCC1187 (breast, suspension, top dose 4 µM)”, in that order: 0.907 and above 4000 nM.
For “HCC1395 (breast, adherent, top dose 4 µM)”, in that order: 0.862 and above 4000 nM.
Turning to “HCC1419 (breast, adherent, top dose 4 µM)”, the AUC turned out to be 0.786 and the IC50 stood at 2590 nM.
For “HCC1428 (breast, adherent, top dose 4 µM)”, in that order: 0.984 and above 4000 nM.
For “HCC1500 (breast, adherent, top dose 4 µM)”, in that order: 0.95 and above 4000 nM.
As to “HCC1569 (breast, adherent, top dose 4 µM)”, the AUC was 0.895 and the 50% inhibitory concentration (IC50) was above 4000 nM.
In the case of “HCC1806 (breast, adherent, top dose 4 µM)”, the AUC is 0.988 and the IC50 is above 4000 nM.
For “HCC1937 (breast, adherent, top dose 4 µM)”, in that order: 0.808 and 2470 nM.
As to “HCC1954 (breast, adherent, top dose 4 µM)”, the AUC came to 0.949 and the IC50 is above 4000 nM.
As for “HCC2157 (breast, suspension, top dose 4 µM)”, the AUC came to 0.462 and the IC50 is 196 nM.
For “HCC2218 (breast, suspension, top dose 4 µM)”, in that order: 0.751 and 1620 nM.
In the case of “HCC-15 (lung squamous cell carcinoma, adherent, top dose 4 µM)”, the AUC came to 0.836 and the IC50 is 3790 nM.
Take “HCC-44 (lung adenocarcinoma, adherent, top dose 2 µM)”: the AUC is 0.625 and the IC50 amounted to 273 nM.
For “HCC-56 (large intestine, adherent, top dose 4 µM)”, in that order: 0.927 and above 4000 nM.
For “HCC-78 (lung adenocarcinoma, adherent, top dose 4 µM)”, in that order: 0.818 and 2770 nM.
For “HCC-366 (non-small cell lung carcinoma, adherent, top dose 4 µM)”, in that order: 0.845 and 3060 nM.
In the case of “HCT-15 (large intestine, adherent, top dose 4 µM)”, the AUC amounted to 0.694 and the IC50 was 913 nM.
As to “HD-MY-Z (Hodgkin lymphoma, adherent, top dose 4 µM)”, the AUC is 0.942 and the IC50 was above 4000 nM.
For “HDLM-2 (Hodgkin lymphoma, suspension, top dose 4 µM)”, in that order: 0.944 and above 4000 nM.
For “HDQ-P1 (breast, adherent, top dose 4 µM)”, in that order: 0.858 and above 4000 nM.
“HEC-1 (endometrium, adherent, top dose 4 µM)”: the AUC is 0.904 and the IC50 is above 4000 nM.
For “HGC-27 (stomach, adherent, top dose 4 µM)”, in that order: 0.524 and 287 nM.
Turning to “HH (T-cell leukaemia, suspension, top dose 4 µM)”, the AUC amounted to 0.478 and the concentration for half-maximal inhibition (IC50) was found to be 213 nM.
For HLE (liver, adherent, top dose 2 µM), in that order: 0.91 and above 2000 nM.
For “HN (head and neck, adherent, top dose 4 µM)”, in that order: 0.762 and 1350 nM.
As to “HO-1-u-1 (head and neck, adherent, top dose 4 µM)”, the AUC was 0.825 and the IC50 turned out to be 2270 nM.
As for “HOP-62 (lung adenocarcinoma, adherent, top dose 4 µM)”, the AUC was found to be 0.935 and the IC50 is above 4000 nM.
Take “HOS (osteosarcoma, adherent, top dose 4 µM)”: the AUC worked out at 0.804 and the IC50 stood at 1620 nM.
For “HSC-2 (head and neck, adherent, top dose 4 µM)”, in that order: 0.882 and 3680 nM.
For “HSC-39 (stomach, suspension, top dose 4 µM)”, in that order: 0.538 and 313 nM.
For “HT55 (large intestine, adherent, top dose 4 µM)”, the AUC was determined as 0.905 and the IC50 is above 4000 nM.
For “HT (B-cell lymphoma, suspension, top dose 4 µM)”, in that order: 0.639 and 583 nM.
For HT-3 (cervix, adherent, top dose 4 µM), in that order: 0.816 and 2260 nM.
For “HT-115 (large intestine, adherent, top dose 4 µM)”, in that order: 0.863 and 2970 nM.
Take “HT-144 (melanoma, adherent, top dose 4 µM)”: the AUC was determined as 0.977 and the IC50 is above 4000 nM.
As to “HT-1080 (fibrosarcoma, adherent, top dose 4 µM)”, the AUC came to 0.866 and the IC50 was 2970 nM.
For “HT-1197 (bladder, adherent, top dose 4 µM)”, in that order: 0.92 and above 4000 nM.
As to “HT-1376 (bladder, adherent, top dose 4 µM)”, the AUC was determined as 0.874 and the IC50 is above 4000 nM.
For “HUTU-80 (digestive system, adherent, top dose 4 µM)”, in that order: 0.723 and 937 nM.
For “Hep 3B2_1-7 (liver, adherent, top dose 4 µM)”, in that order: 0.718 and 1040 nM.
For Hey (ovary, adherent, top dose 4 µM), in that order: 0.741 and 1160 nM.
With “Hs633T (fibrosarcoma, adherent, top dose 4 µM)”, the AUC stood at 0.705 and the concentration for half-maximal inhibition (IC50) stood at 833 nM.
On to Hs683 (glioma, adherent, top dose 4 µM), for which the AUC is 0.776 and the IC50 worked out at 1610 nM.
For “Hs746T (stomach, adherent, top dose 4 µM)”, in that order: 0.821 and 3450 nM.
“Hs766T (pancreas, adherent, top dose 4 µM)”: the AUC worked out at 0.792 and the IC50 came to 2500 nM.
For “Hs939-T (melanoma, adherent, top dose 4 µM)”, in that order: 0.773 and 1700 nM.
For “HuCCT1 (biliary tract, adherent, top dose 4 µM)”, in that order: 0.881 and above 4000 nM.
